# Article PMC4336329 (PLoS ONE, 2015)
# The campaign covered roughly 310,000 compounds. About 2,200 (0.71%) showed an effect of 50% or more. Effects have a minus sign here. The list shows a part of the results.
# Biological target: human ether-à-go-go-related gene (hERG) potassium channel (human, UniProt Q12809)
# Assay: primary screen, population patch clamp on CHO cells stably expressing hERG
# Chain of human ether-à-go-go-related gene (hERG) potassium channel (Q12809 whole entry, looked up): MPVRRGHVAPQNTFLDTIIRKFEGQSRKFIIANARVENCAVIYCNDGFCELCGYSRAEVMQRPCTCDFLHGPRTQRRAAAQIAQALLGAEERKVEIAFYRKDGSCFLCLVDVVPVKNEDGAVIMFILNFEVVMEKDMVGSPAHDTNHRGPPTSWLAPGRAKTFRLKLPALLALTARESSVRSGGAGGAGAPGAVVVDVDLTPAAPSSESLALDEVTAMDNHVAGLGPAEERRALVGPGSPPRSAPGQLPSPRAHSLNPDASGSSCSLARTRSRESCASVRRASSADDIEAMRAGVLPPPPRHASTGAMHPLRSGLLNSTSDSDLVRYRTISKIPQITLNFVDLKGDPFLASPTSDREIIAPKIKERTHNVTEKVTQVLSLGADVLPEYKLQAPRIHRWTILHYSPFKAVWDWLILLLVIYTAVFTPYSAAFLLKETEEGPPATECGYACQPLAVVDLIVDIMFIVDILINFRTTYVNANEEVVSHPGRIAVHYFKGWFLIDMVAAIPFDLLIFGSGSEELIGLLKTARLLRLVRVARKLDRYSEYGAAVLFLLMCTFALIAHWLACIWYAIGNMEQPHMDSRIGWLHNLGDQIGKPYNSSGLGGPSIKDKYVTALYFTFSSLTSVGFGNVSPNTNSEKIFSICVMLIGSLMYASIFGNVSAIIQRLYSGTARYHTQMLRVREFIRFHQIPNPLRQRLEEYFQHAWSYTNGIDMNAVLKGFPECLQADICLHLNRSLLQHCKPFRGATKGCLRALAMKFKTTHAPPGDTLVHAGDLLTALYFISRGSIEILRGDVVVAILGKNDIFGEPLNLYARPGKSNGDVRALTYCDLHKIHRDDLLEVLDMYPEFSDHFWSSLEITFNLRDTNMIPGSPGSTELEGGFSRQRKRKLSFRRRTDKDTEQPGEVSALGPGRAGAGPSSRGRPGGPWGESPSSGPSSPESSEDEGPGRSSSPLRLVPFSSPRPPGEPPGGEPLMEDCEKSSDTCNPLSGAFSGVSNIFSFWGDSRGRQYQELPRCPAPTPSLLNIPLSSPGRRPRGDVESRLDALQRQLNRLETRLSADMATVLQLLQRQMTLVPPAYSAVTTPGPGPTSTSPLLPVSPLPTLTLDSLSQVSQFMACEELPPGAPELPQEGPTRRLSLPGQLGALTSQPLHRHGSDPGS
row,Compound,"hERG current change (%, negative = inhibition) at 1uM [%]"
1,Cc1cccc(C(=O)Oc2ccccc2/C=N/Nc2ccc([N+](=O)[O-])cc2)c1,15.4
2,CC1CCC(C(=O)NC(C(=O)NCc2ccccn2)C(C)C)CC1 (stereo not drawn),6.45
3,CC(Sc1nncn1C)C(=O)Nc1nnc(-c2ccccc2)s1 (stereo not drawn),12.2
4,CC(C)c1ccc(Nc2nc(Cl)nc(Cl)n2)cc1,13.5
5,O=C(C1CCN(c2nnc(-n3cccc3)s2)CC1)N1CCN(c2cccc(C(F)(F)F)c2)CC1,-6.44
6,CCOC(=O)C1(Cc2cccc(OC)c2)CCCN(Cc2cnn(C)c2)C1 (stereo not drawn),8.31
7,CCOc1ccc2nc(SCC(=O)Nc3ccc4[nH]c(=O)[nH]c4c3)[nH]c2c1,25.2
8,COc1ccc2c(c1)CC(C(=O)Nc1ccc(Cl)cc1)/C(=N/O)O2 (stereo not drawn),15.2
9,O=C(CCCN1C(=O)/C(=C/c2cccc(Br)c2)SC1=S)NCCCN1CCOCC1,4.2
10,COc1ccc(C2CC(c3ccc([N+](=O)[O-])cc3)=NN2C(=O)c2ccccc2)cc1OC (stereo not drawn),8.63
11,COC(=O)CSc1nnc(-c2c[nH]c3ccccc23)o1,0.583
12,O=C(C/C(=N\NC(=O)c1ccccc1Br)C(F)(F)F)c1cccs1,3.65
13,Cc1cc(Cn2nnc(-c3ccc(Br)cc3)n2)cc(C)c1O,11.1
14,CCOc1ccc(OCCCN(C)C)cc1,11.3
15,CN(C)c1ccc(C(C#N)c2ccc(Cl)cc2)nn1 (stereo not drawn),6.89
16,Cc1cc(C(F)(F)F)n(-c2nc(C(=O)NNS(=O)(=O)c3ccccc3)cs2)n1,2.27
17,O=C(CC1C(=O)NCCN1C(=O)Nc1ccc(C(F)(F)F)cc1)Nc1ccc(F)cc1 (stereo not drawn),12.3
18,CNC(C)C(=O)NC(C(=O)N1CCCC1C(=O)NNc1ccccc1)C(C)C.O=CO (stereo not drawn),8.62
19,Cc1ccc(S(=O)(=O)c2nc(C(C)(C)C)oc2N2CCOCC2)cc1,8.74
20,COC(=O)C1CCN(C(=O)CN2C(=O)NC(CCc3ccccc3)C2=O)CC1 (stereo not drawn),11.3
21,CCOc1ccc(-n2c(O)c(C=Nc3ccc(N(CC)CC)cc3)c(=O)[nH]c2=O)cc1,12.5

row,Compound,"hERG current change (%, negative = inhibition) at 1uM [%]"
1,Cc1ccc2nc3c(cc(C(=O)NC4CCCC4)c(=N)n3C3CCCCC3)c(=O)n2c1,-86.2
2,COCCn1c(SCC(=O)Nc2nnc(C)s2)nnc1-c1ccco1,8.74
3,COC(=O)[C@@]12CCCN1[C@H](c1ccc(-c3ccccc3)cc1)[C@H]1C(=O)N(C)C(=O)[C@H]12.O=C(O)C(F)(F)F,0.751
4,CSc1ncccc1C(=O)Nc1ncc(C)s1,11.1
5,COc1cc(OC)cc(C(=O)Nc2ccc3c(c2)n(C)c(=O)n3C)c1,8.55
6,CCN(CC)C(=O)c1sc2nc(-c3ccccc3)ccc2c1N,13.3
7,CC1CC(C)CN(S(=O)(=O)c2ccc(C(=O)N3CCOCC3)cc2)C1 (stereo not drawn),5.11
8,CCOc1ccc(OCCN2C(=O)c3ccccc3C2=O)cc1,10.8
9,CC(C)C(=O)NC(c1ccc([N+](=O)[O-])cc1)c1c(O)ccc2ccccc12 (stereo not drawn),0.552
10,O=C(COC(=O)C1CC1)Nc1ccc([N+](=O)[O-])cc1C(F)(F)F,7.29
11,Cc1nn(-c2ccccc2)c2nc3c(cc12)C(=O)CCC3,9.08
12,Cc1ccccc1C(=O)c1cccn1CC(=O)NCc1cccc(Cl)c1,19.9
13,CN(C)CCn1cnc2c(c1=N)C(c1ccccc1)c1ccc3ccccc3c1O2 (stereo not drawn),-78.1
14,COc1cc(/C=C2\C(=N)N3N=C(S(C)(=O)=O)SC3=NC2=O)ccc1OS(=O)(=O)c1ccccc1,16.4
15,O=C(CCS(=O)(=O)c1cc(Br)cc2c1N(C(=O)C1CC1)CC2)NCC1CCCO1 (stereo not drawn),15.4
16,C=CCNCc1cccn1-c1ccccc1.O=C(O)C(=O)O,12.7
17,Cc1cc2ccccn2c1C(=O)c1cc([N+](=O)[O-])cc([N+](=O)[O-])c1,13.1
18,CCCCCC(=O)Cc1cc(O)cc2c1C(=O)Oc1cc(O)c(C(=O)O)c(CCCCC)c1O2,13.1
19,Cc1nc(C(F)(F)F)ccc1C(=O)Nc1ccccc1N1CCOCC1,13.2
20,O=S(=O)(c1ccc2c(c1)OCCO2)N1CCC(c2nc3ccc(Cl)cc3[nH]2)CC1,-15.7
21,Cc1ccc(S(=O)(=O)N2CCN(Cc3cccc(F)c3)CC2)cc1,7.91

row,Compound,"hERG current change (%, negative = inhibition) at 1uM [%]"
1,CCOc1ccc(-c2cc(C(=O)NCCCN3CCCC3)c3ccccc3n2)cc1,10.7
2,Cc1ccc(C(=O)O)cc1NC(=S)NC(=O)Cc1ccccc1,10.8
3,Cl.O=[N+]([O-])c1ccc(O)c(Nc2ncnc3ccc(Br)cc23)c1,14.6
4,N#C/C(=N\Nc1ccc(Cl)cc1)C(=N)N1CCCCCC1,40.5
5,COCCN(C(=O)CC1C(=O)NCCN1Cc1ccc(-c2ccccc2)cc1)C(C)C (stereo not drawn),14.2
6,CC1CCCN(c2ccc(C(=O)NCc3ccccc3)cn2)C1 (stereo not drawn),0.803
7,COc1ccc(-c2nn(-c3ccccc3C)cc2CNC(C)c2cn(C)nc2C)cc1F (stereo not drawn),2.8
8,COc1ccc(N(C(=O)COc2ccc(F)cc2)S(=O)(=O)c2ccc(C)cc2)cc1,15
9,O=C(c1ccco1)N1CCN(C(=O)C(c2ccccc2)c2ccccc2)CC1,12
10,O=C1NC(c2ccc(-c3ccccc3[N+](=O)[O-])o2)C(C(=O)c2ccccc2)C(O)(C(F)(F)F)N1 (stereo not drawn),10.3
11,CC1CCCN(C(=O)CN2C(=O)CSc3ccc(S(=O)(=O)N4CCOCC4)cc32)C1 (stereo not drawn),11.6
12,COc1cccc(/C=N/n2c(-c3n[nH]c4c3CCC4)n[nH]c2=S)c1O,17.7
13,CCC(CC)C(=O)Nc1nnc(S(=O)(=O)N2CCCC2)s1,2.83
14,Nc1ccc(-c2nnc(-c3ccc(-c4ccccc4)cc3)o2)cc1,5.86
15,COc1cc(C)nc(NC(=O)COc2ccc(Cl)cc2C)n1,4.17
16,CCOC(=O)N1c2ccccc2C=CC1OCC (stereo not drawn),17.7
17,COc1ccc(C(CC(=O)O)NC(=O)Nc2ccccc2)cc1OC (stereo not drawn),11.6
18,Cn1c(SCc2nc3ccccc3n2CCO)nc2ccccc21,21.5
19,NS(=O)(=O)c1cccc(NC(=O)CSc2nnc(C3CC3)n2Cc2ccccc2)c1,0.0501
20,COc1cc(C(=O)Nc2nc(-c3ccc(C)cc3)cs2)ccc1OCC(=O)N1CCOCC1,13.9
21,CCn1c(/C=C/Nc2ccccc2)[n+](CC)c2ccc(Cl)cc21.[I-],-82.8

row,Compound,"hERG current change (%, negative = inhibition) at 1uM [%]"
1,CN(C)C(CNC(C(=O)Nc1ccc(F)cc1)c1ccccc1)c1ccccc1 (stereo not drawn),-18.4
2,Cc1ccc(-n2cc(CNCCN3CCOC3=O)c(-c3cccc(C)c3)n2)cc1,-24.3
3,COc1ccc(OCCC(=O)OCC(=O)NC(=O)NC2CCCCC2)cc1,13.8
4,CN(C)c1ccnc2sc3c(NCC(O)CO)ncnc3c12 (stereo not drawn),3.7
5,Cc1cccc(NC(=S)N(CCN(C)C)Cc2cc3cc(C)ccc3[nH]c2=O)c1,9.8
6,COc1ccc(CCNC(=O)CN(Cc2ccc(Cl)cc2)S(C)(=O)=O)cc1OC,9.31
7,CCOC(=O)C(=CNc1nc(-c2ccccc2)c(C(=O)Nc2ccc(-c3ccccc3)cc2)s1)C(=O)OCC,14.3
8,CCOC(=O)N1CCN(C(=O)/C(=C/c2cccc3ccccc23)NC(=O)c2ccc(OC)c(OC)c2)CC1,3.69
9,O=C(Nc1ccccc1)c1ccccc1CCc1ccccc1,13
10,O=C1C2C3C=CC(C3)C2C(=O)N1CCN1CCN(S(=O)(=O)c2ccc3ccccc3c2)CC1 (stereo not drawn),6.34
11,COc1ccc(C(C)=O)cc1COC(=O)c1c(C)noc1C,4.25
12,CSCC[C@H](NC(=O)c1ccc(Cl)c([N+](=O)[O-])c1)c1nc2ccccc2[nH]1,4.82
13,O=S(=O)([O-])CCS.[Na+],20.3
14,CN(c1ccccc1)S(=O)(=O)c1cccc(NS(=O)(=O)c2ccc(/C=C/C(=O)O)cc2)c1,5.57
15,COc1ccc(N(C)C(=O)c2cc3c(s2)-c2ccccc2S(=O)(=O)C3)cc1,-14.5
16,CCN1CCN(CCNC(=O)Cn2c(=O)c3cccn3c3ccc(F)cc32)CC1,15.9
17,CC1CCc2cc(F)cc3c(=O)c(C(=O)O)cn1c23 (stereo not drawn),12.7
18,COc1ccc(C2CC(=O)n3nc(C45CC6CC(CC(C6)C4)C5)nc3S2)cc1OC (stereo not drawn),14.3
19,CCNc1nc(Oc2ccc(C#N)cc2)cc(C(F)(F)F)n1,8.21
20,O=c1oc2ccccc2c(NC2CCCCC2)c1NS(=O)(=O)c1ccc(Br)cc1,8.54
21,Cc1ccccc1C(=O)N/N=C/c1ccc(OCC(=O)N2CCCCC2)cc1,10.3
